# Results as given in the supplement of paper PMC10037445.
# In all, about 2,900 compounds were measured (“NF-kB SEAP reporter activity, fold change vs agonist alone”: median about 0.99, highest 2% from about 2.6 on). Some of the results follow.
# What was measured:
# RAW-Dual [1] = test: NF-kB SEAP reporter activity, fold change vs agonist alone; higher = enhanced NF-kB activity; conditions: library stock concentration (final ~1000-fold dilution): 10 mM
# Method in brief: (§1)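 Library stock was pin-tooled at 50 nL into 384-well plates of RAW-Dual macrophages (50,000 cells/well, DMEM), followed 1 h later by a PRR agonist, and the cells were kept at 37 °C, 5% CO2. Supernatant collected after 20 hours was read for IRF by QuantiLuc luminescence and for NF-κB by QuantiBlue absorbance at 620 nm. Reporter activity is fold change over agonist-alone wells, and a well counted as cytotoxic when its IncuCyte confluency was below 70% of agonist controls in both mask sets.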
# RAW-Dual [2] = test: NF-kB SEAP reporter activity, fold change vs agonist alone; cytotoxicity flag (confluency mask): not cytotoxic; higher = enhanced NF-kB activity
# Method in brief: as §1
# RAW-Dual [3] = test: NF-kB SEAP reporter activity, fold change vs agonist alone; cytotoxicity flag (confluency mask): cytotoxic (confluency <70% of control); higher = enhanced NF-kB activity
# Method in brief: as §1
# [4] = cytotoxicity flag (confluency mask): not cytotoxic, agonist: Imiquimod (TLR7) […]
# [5] = cytotoxicity flag (confluency mask): not cytotoxic, agonist: MPLA (TLR4) […]
# [6] = agonist: ODN 1826 (TLR9) 0.5 ug/mL
# [7] = agonist: Pam2CSK4 (TLR2/6) 0.1 ug/mL
# [8] = agonist: Pam3CSK4 (TLR2/1) 0.1 ug/mL
# [9] = cytotoxicity flag (confluency mask): cytotoxic (confluency <70% of control), agonist: Imiquimod (TLR7) […]
# [10] = cytotoxicity flag (confluency mask): cytotoxic (confluency <70% of control), agonist: MPLA (TLR4) […]
smiles,measurement,setting,value
c1ccc(C(c2ccccc2)N2CCN(Cc3ccc4c(c3)OCO4)CC2)cc1,NF-kB SEAP reporter activity,RAW-Dual [1]; [4],1.19
same,NF-kB SEAP reporter activity,RAW-Dual [1]; [5],0.686
c1ccc(C(c2ccccc2)N2CCN(Cc3ccc4c(c3)OCO4)CC2)cc1 (library stock concentration (final ~1000-fold dilution): 10 mM),NF-kB SEAP reporter activity,RAW-Dual [2]; agonist: LPS (TLR4) 0.1 ug/mL,0.717
same,NF-kB SEAP reporter activity,RAW-Dual [2]; [6],0.728
same,NF-kB SEAP reporter activity,RAW-Dual [2]; [7],1.38
same,NF-kB SEAP reporter activity,RAW-Dual [2]; [8],0.699
CNc1ccc([N+](=O)[O-])c(Nc2ccc3[nH]ncc3c2)n1 (library stock concentration (final ~1000-fold dilution): 10 mM),NF-kB SEAP reporter activity,RAW-Dual [2]; agonist: LPS (TLR4) 0.1 ug/mL,0.533
same,NF-kB SEAP reporter activity,RAW-Dual [2]; [6],0.722
same,NF-kB SEAP reporter activity,RAW-Dual [2]; [7],0.2
same,NF-kB SEAP reporter activity,RAW-Dual [2]; [8],0.694
CNc1ccc([N+](=O)[O-])c(Nc2ccc3[nH]ncc3c2)n1,NF-kB SEAP reporter activity,RAW-Dual [1]; [4],0.983
same,NF-kB SEAP reporter activity,RAW-Dual [1]; [5],0.764
O=C(O)CCC(=O)c1ccc(-c2ccccc2)cc1 (library stock concentration (final ~1000-fold dilution): 10 mM),NF-kB SEAP reporter activity,RAW-Dual [2]; agonist: LPS (TLR4) 0.1 ug/mL,1.28
same,NF-kB SEAP reporter activity,RAW-Dual [2]; [6],1.04
same,NF-kB SEAP reporter activity,RAW-Dual [2]; [7],0.901
same,NF-kB SEAP reporter activity,RAW-Dual [2]; [8],1.19
O=C(O)CCC(=O)c1ccc(-c2ccccc2)cc1,NF-kB SEAP reporter activity,RAW-Dual [1]; [4],0.968
same,NF-kB SEAP reporter activity,RAW-Dual [1]; [5],1.04
CC1(C)CC[C@]2(NC(=O)C(C)(F)F)CC[C@]3(C)[C@H](C(=O)C=C4[C@@]5(C)C=C(C#N)C(=O)C(C)(C)[C@@H]5CC[C@]43C)[C@@H]2C1,NF-kB SEAP reporter activity,RAW-Dual [1]; [9],0.147
same,NF-kB SEAP reporter activity,RAW-Dual [1]; [10],0.25
CC1(C)CC[C@]2(NC(=O)C(C)(F)F)CC[C@]3(C)[C@H](C(=O)C=C4[C@@]5(C)C=C(C#N)C(=O)C(C)(C)[C@@H]5CC[C@]43C)[C@@H]2C1 (library stock concentration (final ~1000-fold dilution): 10 mM),NF-kB SEAP reporter activity,RAW-Dual [3]; agonist: LPS (TLR4) 0.1 ug/mL,0.315
same,NF-kB SEAP reporter activity,RAW-Dual [3]; [6],0.183
same,NF-kB SEAP reporter activity,RAW-Dual [3]; [7],0.101
same,NF-kB SEAP reporter activity,RAW-Dual [3]; [8],0.18
COc1ccc(-c2cc3nccn3c(Nc3ncccc3C(N)=O)n2)cc1OC.Cl.Cl,NF-kB SEAP reporter activity,RAW-Dual [1]; [4],1.04
same,NF-kB SEAP reporter activity,RAW-Dual [1]; [5],1.64
COc1ccc(-c2cc3nccn3c(Nc3ncccc3C(N)=O)n2)cc1OC.Cl.Cl (library stock concentration (final ~1000-fold dilution): 10 mM),NF-kB SEAP reporter activity,RAW-Dual [2]; agonist: LPS (TLR4) 0.1 ug/mL,1.18
same,NF-kB SEAP reporter activity,RAW-Dual [2]; [6],0.862
same,NF-kB SEAP reporter activity,RAW-Dual [2]; [7],0.684
same,NF-kB SEAP reporter activity,RAW-Dual [2]; [8],0.541
CCOC(=O)c1ccc(NC2CCCCC2)c(N)c1,NF-kB SEAP reporter activity,RAW-Dual [1]; [4],1.14
same,NF-kB SEAP reporter activity,RAW-Dual [1]; [5],1.57
CCOC(=O)c1ccc(NC2CCCCC2)c(N)c1 (library stock concentration (final ~1000-fold dilution): 10 mM),NF-kB SEAP reporter activity,RAW-Dual [2]; agonist: LPS (TLR4) 0.1 ug/mL,2.07
same,NF-kB SEAP reporter activity,RAW-Dual [2]; [6],1.28
same,NF-kB SEAP reporter activity,RAW-Dual [2]; [7],0.963
same,NF-kB SEAP reporter activity,RAW-Dual [2]; [8],1.09
CCOC(=O)C1=C(C)NC(C)=C(C(=O)OC)C1c1cccc(Cl)c1Cl (configuration not stated),NF-kB SEAP reporter activity,RAW-Dual [1]; [4],1.53
same,NF-kB SEAP reporter activity,RAW-Dual [1]; [5],0.952
CCOC(=O)C1=C(C)NC(C)=C(C(=O)OC)C1c1cccc(Cl)c1Cl (configuration not stated) (library stock concentration (final ~1000-fold dilution): 10 mM),NF-kB SEAP reporter activity,RAW-Dual [2]; agonist: LPS (TLR4) 0.1 ug/mL,0.607
same,NF-kB SEAP reporter activity,RAW-Dual [2]; [6],0.648
same,NF-kB SEAP reporter activity,RAW-Dual [2]; [7],0.408
same,NF-kB SEAP reporter activity,RAW-Dual [2]; [8],0.423
CC(OC1OCCN(Cc2n[nH]c(=O)[nH]2)C1c1ccc(F)cc1)c1cc(C(F)(F)F)cc(C(F)(F)F)c1 (configuration not stated) (library stock concentration (final ~1000-fold dilution): 10 mM),NF-kB SEAP reporter activity,RAW-Dual [2]; agonist: LPS (TLR4) 0.1 ug/mL,0.29
same,NF-kB SEAP reporter activity,RAW-Dual [2]; [6],0.233
same,NF-kB SEAP reporter activity,RAW-Dual [2]; [7],0.109
same,NF-kB SEAP reporter activity,RAW-Dual [2]; [8],0.175
CC(OC1OCCN(Cc2n[nH]c(=O)[nH]2)C1c1ccc(F)cc1)c1cc(C(F)(F)F)cc(C(F)(F)F)c1 (configuration not stated),NF-kB SEAP reporter activity,RAW-Dual [1]; [4],0.394
same,NF-kB SEAP reporter activity,RAW-Dual [1]; [5],0.374
Cc1cc(O)c(-c2ccc(C(C)CN(C)C)cc2)c2c1[nH]c(=O)c1sccc12.Cl.Cl (configuration not stated) (library stock concentration (final ~1000-fold dilution): 10 mM),NF-kB SEAP reporter activity,RAW-Dual [3]; agonist: LPS (TLR4) 0.1 ug/mL,0.764
same,NF-kB SEAP reporter activity,RAW-Dual [3]; [6],0.357
same,NF-kB SEAP reporter activity,RAW-Dual [3]; [7],0.311
same,NF-kB SEAP reporter activity,RAW-Dual [3]; [8],0.482
Cc1cc(O)c(-c2ccc(C(C)CN(C)C)cc2)c2c1[nH]c(=O)c1sccc12.Cl.Cl (configuration not stated),NF-kB SEAP reporter activity,RAW-Dual [1]; [9],1.2
same,NF-kB SEAP reporter activity,RAW-Dual [1]; [10],1.37
CN1CCN(Cc2ccc(-c3cnc4[nH]cc(-c5ccc6[nH]ccc6c5)c4c3)cc2)CC1,NF-kB SEAP reporter activity,RAW-Dual [1]; [4],0.132
same,NF-kB SEAP reporter activity,RAW-Dual [1]; [5],0.242
CN1CCN(Cc2ccc(-c3cnc4[nH]cc(-c5ccc6[nH]ccc6c5)c4c3)cc2)CC1 (library stock concentration (final ~1000-fold dilution): 10 mM),NF-kB SEAP reporter activity,RAW-Dual [2]; agonist: LPS (TLR4) 0.1 ug/mL,0.216
same,NF-kB SEAP reporter activity,RAW-Dual [2]; [6],0.181
same,NF-kB SEAP reporter activity,RAW-Dual [2]; [7],0.0629
same,NF-kB SEAP reporter activity,RAW-Dual [2]; [8],0.138
O=C(NNc1nc2cc(F)ccc2n2cccc12)c1cnccn1,NF-kB SEAP reporter activity,RAW-Dual [1]; [4],0.884
same,NF-kB SEAP reporter activity,RAW-Dual [1]; [5],0.953
O=C(NNc1nc2cc(F)ccc2n2cccc12)c1cnccn1 (library stock concentration (final ~1000-fold dilution): 10 mM),NF-kB SEAP reporter activity,RAW-Dual [2]; agonist: LPS (TLR4) 0.1 ug/mL,1.09
same,NF-kB SEAP reporter activity,RAW-Dual [2]; [6],0.874
same,NF-kB SEAP reporter activity,RAW-Dual [2]; [7],0.922
same,NF-kB SEAP reporter activity,RAW-Dual [2]; [8],0.894
CCCCCCCCCCCCCCCc1cccc(O)c1C(=O)O,NF-kB SEAP reporter activity,RAW-Dual [1]; [4],0.943
same,NF-kB SEAP reporter activity,RAW-Dual [1]; [5],0.949
CCCCCCCCCCCCCCCc1cccc(O)c1C(=O)O (library stock concentration (final ~1000-fold dilution): 10 mM),NF-kB SEAP reporter activity,RAW-Dual [2]; agonist: LPS (TLR4) 0.1 ug/mL,0.78
same,NF-kB SEAP reporter activity,RAW-Dual [2]; [6],0.942
same,NF-kB SEAP reporter activity,RAW-Dual [2]; [7],0.845
same,NF-kB SEAP reporter activity,RAW-Dual [2]; [8],0.987
CC(C)c1cc(C(C)C)c(CC(=O)NS(=O)(=O)Oc2c(C(C)C)cccc2C(C)C)c(C(C)C)c1,NF-kB SEAP reporter activity,RAW-Dual [1]; [4],0.913
same,NF-kB SEAP reporter activity,RAW-Dual [1]; [5],0.911
CC(C)c1cc(C(C)C)c(CC(=O)NS(=O)(=O)Oc2c(C(C)C)cccc2C(C)C)c(C(C)C)c1 (library stock concentration (final ~1000-fold dilution): 10 mM),NF-kB SEAP reporter activity,RAW-Dual [2]; agonist: LPS (TLR4) 0.1 ug/mL,1.39
same,NF-kB SEAP reporter activity,RAW-Dual [2]; [6],0.949
same,NF-kB SEAP reporter activity,RAW-Dual [2]; [7],0.266
same,NF-kB SEAP reporter activity,RAW-Dual [2]; [8],0.733
COC(=O)/C=C/C(=O)OC (library stock concentration (final ~1000-fold dilution): 10 mM),NF-kB SEAP reporter activity,RAW-Dual [2]; agonist: LPS (TLR4) 0.1 ug/mL,0.79
same,NF-kB SEAP reporter activity,RAW-Dual [2]; [6],0.844
same,NF-kB SEAP reporter activity,RAW-Dual [2]; [7],0.645
same,NF-kB SEAP reporter activity,RAW-Dual [2]; [8],0.624
COC(=O)/C=C/C(=O)OC,NF-kB SEAP reporter activity,RAW-Dual [1]; [4],0.885
same,NF-kB SEAP reporter activity,RAW-Dual [1]; [5],0.927
Nc1ncn(C2OC(CO)C(O)C2O)c(=O)n1 (configuration not stated),NF-kB SEAP reporter activity,RAW-Dual [1]; [4],2.59
same,NF-kB SEAP reporter activity,RAW-Dual [1]; [5],2.47
Nc1ncn(C2OC(CO)C(O)C2O)c(=O)n1 (configuration not stated) (library stock concentration (final ~1000-fold dilution): 10 mM),NF-kB SEAP reporter activity,RAW-Dual [2]; agonist: LPS (TLR4) 0.1 ug/mL,1.06
same,NF-kB SEAP reporter activity,RAW-Dual [2]; [6],1.91
same,NF-kB SEAP reporter activity,RAW-Dual [2]; [7],0.631
same,NF-kB SEAP reporter activity,RAW-Dual [2]; [8],0.71
CCN1C(=O)C=CC1=O (library stock concentration (final ~1000-fold dilution): 10 mM),NF-kB SEAP reporter activity,RAW-Dual [3]; agonist: LPS (TLR4) 0.1 ug/mL,0.254
same,NF-kB SEAP reporter activity,RAW-Dual [3]; [6],0.661
same,NF-kB SEAP reporter activity,RAW-Dual [3]; [7],0.125
same,NF-kB SEAP reporter activity,RAW-Dual [3]; [8],0.804
CCN1C(=O)C=CC1=O,NF-kB SEAP reporter activity,RAW-Dual [1]; [9],1.53
same,NF-kB SEAP reporter activity,RAW-Dual [1]; [10],0.608
O=C(NC(Cc1cc(=O)[nH]c2ccccc12)C(=O)O)c1ccc(Cl)cc1 (configuration not stated) (library stock concentration (final ~1000-fold dilution): 10 mM),NF-kB SEAP reporter activity,RAW-Dual [2]; agonist: LPS (TLR4) 0.1 ug/mL,1.26
same,NF-kB SEAP reporter activity,RAW-Dual [2]; [6],0.836
same,NF-kB SEAP reporter activity,RAW-Dual [2]; [7],1.03
same,NF-kB SEAP reporter activity,RAW-Dual [2]; [8],1.12
O=C(NC(Cc1cc(=O)[nH]c2ccccc12)C(=O)O)c1ccc(Cl)cc1 (configuration not stated),NF-kB SEAP reporter activity,RAW-Dual [1]; [4],0.892
same,NF-kB SEAP reporter activity,RAW-Dual [1]; [5],1.01
